# Some of the results follow. Single values of this set are uncertain. Values with irradiation are relative to irradiated vehicle.
# Tested on: A549-Dual
# Experiment: ISRE reporter (Lucia luciferase) activity, viability-corrected, relative to vehicle (fold change vs vehicle); higher = more activation of STING-IRF / NF-kB immune response reporter
# Conditions: 10 µM; irradiation: none
row,SMILES,ISRE reporter
1,CCCCC1(COC(=O)CCC(=O)O)C(=O)N(c2ccccc2)N(c2ccccc2)C1=O [Suxibuzone],0.838
2,CS(=O)(=O)Nc1cc2occ(NC=O)c(=O)c2cc1Oc1ccccc1 [Iguratimod],0.525
3,COc1cc2nccc(Oc3ccc(NC(=O)Nc4cc(C)on4)c(Cl)c3)c2cc1OC [Tivozanib (AV-951)],0.495
4,Cc1ccc(S(=O)(=O)O)cc1.NC(=O)c1cccc2cn(-c3ccc(C4CCCNC4)cc3)nc12 (stereo unspecified) [Niraparib (MK-4827) tosylate],2.25
5,CC(C)OC(=O)CCC/C=C\CC1C(O)CC(O)C1CCC(O)CCc1ccccc1 (stereo unspecified) [Latanoprost],0.61
6,"O=c1[nH]cc(F)c(=O)[nH]1 [Fluorouracil (5-Fluoracil, 5-FU)]",1.86
7,CC1(C(=O)O)CCC2(C)CCC3(C)C(=CC(=O)C4C5(C)CCC(OC6OC(C(=O)O)C(O)C(O)C6OC6OC(C(=O)O)C(O)C(O)C6O)C(C)(C)C5CCC43C)C2C1.N.N (stereo unspecified) [Diammonium Glycyrrhizinate],0.861
8,"CC1(C)CCC(CN2CCN(c3ccc(C(=O)NS(=O)(=O)c4ccc(NCC5CCOCC5)c([N+](=O)[O-])c4)c(Oc4cnc5[nH]ccc5c4)c3)CC2)=C(c2ccc(Cl)cc2)C1 [Venetoclax (ABT-199, GDC-0199)]",0.634
9,CCN(CC)Cc1cc(Nc2ccnc3cc(Cl)ccc23)ccc1O.Cl.Cl [Amodiaquine hydrochloride],1.71
10,CCN(C(=O)c1c(O)c2c(Cl)cccc2n(C)c1=O)c1ccccc1 [Laquinimod],0.42
11,O=C(c1ccc(OCCN2CCCCC2)cc1)c1c(-c2ccc(O)cc2)sc2cc(O)ccc12 [Raloxifene],0.981
